# Reference: patent publication US10925856B2, “Methods and compositions involving bucindolol for the treatment of atrial fibrillation” (priority 2018, dated 2021)
# Read-outs that look alike come from different tables or passages of the source.
# System: HFrEF patients with the ADRB1 Arg389Arg genotype at high risk for recurrent AF
# Conditions: for Hazard Ratio Unadjusted, primary endpoint (1EP) / Time to AF/AFL/ACM, Non-stratified HR (95% CI) / Time to AF/AFL/ACM, Stratified HR (95% CI) / Hazard ratio (95% C.I.): bucindolol vs metoprolol; for Events/pts (%) / Events/pts, time to any AF/AFL or ACM / Hazard ratio (95% C.I.): Entire Cohort; for Hazard ratio (CIs): Buc vs Met; for Phase 2 primary endpoint hazard ratio (HzR) / Ratio: 1-(Hazard ratio at ≤0/hazard ratio at interval) × 100: LVEF ≥0.39
# [1] = CYP2D6 Extensive/Ultra Metabolizer (EM/UM)
# [2] = CYP2D6 Intermediate Metabolizer (IM)
# [3] = CYP2D6 Intermediate Metabolizers
# [4] = LVEF <0.39, EC, All Patients/DTRIs
# [5] = LVEF <0.39, EC, DTRI Q1: −15,251 to −311 days
# [6] = LVEF <0.39, EC, DTRI Q2: −310 to −1 days
# [7] = LVEF <0.39, EC, DTRI Q3: 0 to +44 days
# [8] = LVEF <0.39, EC, DTRI Q4: +45 to +9533 days
# [9] = LVEF <0.39, U.S., All Patients/DTRIs
# [10] = LVEF <0.39, U.S., DTRI Q1: −15,251 to −311 days
# [11] = LVEF <0.39, U.S., DTRI Q2: −310 to −1 days
# [12] = LVEF <0.39, U.S., DTRI Q3: 0 to +44 days
# [13] = LVEF <0.39, U.S., DTRI Q4: +45 to +9533 days
# [14] = LVEF >0.39, EC, All Patients/DTRIs
# [15] = LVEF >0.39, EC, DTRI Q1: −15,251 to −311 days
# [16] = LVEF >0.39, EC, DTRI Q2: −310 to −1 days
# [17] = LVEF >0.39, EC, DTRI Q3: 0 to +44 days
# [18] = LVEF >0.39, EC, DTRI Q4: +45 to +9533 days
# [19] = LVEF >0.39, U.S., All Patients/DTRIs
# [20] = LVEF >0.39, U.S., DTRI Q1: −15,251 to −311 days
# [21] = LVEF >0.39, U.S., DTRI Q2: −310 to −1 days
# [22] = LVEF >0.39, U.S., DTRI Q3: 0 to +44 days
# [23] = LVEF >0.39, U.S., DTRI Q4: +45 to +9533 days
compound,measurement,setting,value
"CC(C)(Cc1c[nH]c2ccccc12)NCC(O)COc1ccccc1C#N (centres unmarked) [bucindolol, 2-(3-(1-(1H-indol-3-yl)-2-methylpropan-2-ylamino)-2-hydroxypropoxy)benzonitrile]",1EP Events,[1],61
same,1EP Events (rate),[1],(58%)
same,"Hazard Ratio Unadjusted, primary endpoint (1EP)",[1],1.01
same,1EP Events,[2],2
same,1EP Events (rate),[2],(22%)
same,"Hazard Ratio Unadjusted, primary endpoint (1EP)",[2],0.24
same,"Hazard ratio, Phase 2 primary endpoint, bucindolol vs. metoprolol",[3],0.24
same,Primary endpoint event rate,[3],22%
same,1EP Events,CYP2D6 Poor Metabolizer (PM),8
same,1EP Events (rate),CYP2D6 Poor Metabolizer (PM),(67%)
same,"Hazard Ratio Unadjusted, primary endpoint (1EP)",CYP2D6 Poor Metabolizer (PM),2.19
same,"Hazard ratio, Phase 2 primary endpoint, bucindolol vs. metoprolol","CYP2D6 Poor Metabolizers, adjusted",2.57
same,Failed ECV at day 0,Canada,21%
same,"Time to AF/AFL/ACM, Non-stratified HR (95% CI)",Canada (N = 59),1.42
same,"Time to AF/AFL/ACM, Stratified HR (95% CI)",Canada (N = 59),1.52
same,"hazard ratio, Phase 2 (time to any AF/AFL or ACM)","Canada (n = 59), covariate adjusted",1.52
same,"Hazard ratio, time to first AF/AFL/ACM, bucindolol vs. metoprolol","Canada, covariate adjusted",1.52
same,Patients who failed ECV on day 0,"Canada, number of patients",4
same,"Hazard ratio, time to first AF/AFL/ACM, bucindolol vs. metoprolol","Canada, unadjusted",1.42
same,"Hazard ratio, time to first AF/AFL/ACM, bucindolol vs. metoprolol",DxT10/DTRI-1 criteria,0.51
same,"Hazard ratio, time to first AF/AFL/ACM, bucindolol vs. metoprolol","DxT12/DTRI-2 cohort N=196 (HF and AF <12 years, AF not preceding HF by >2 years), ECG-based",0.54
same,"Hazard ratio, time to first AF/AFL/ACM, bucindolol vs. metoprolol","DxT12/DTRI-2 cohort, HFlrEF (LVEF <0.40) N=105",0.69
same,"Hazard ratio, time to first AF/AFL/ACM, bucindolol vs. metoprolol","DxT12/DTRI-2 cohort, HFmrEF (LVEF ≥0.40 and <0.50) N=91",0.42
same,Effectiveness by LVEF group,"DxT12/DTRI-2 population, FIG. 30",higher in patient groups having higher LVEF
same,"Hazard ratio, time to first AF/AFL/ACM, bucindolol vs. metoprolol","DxT12: excluding AF or HF >12 years, N=230",0.68
same,"Hazard ratio, time to first AF/AFL/ACM, bucindolol vs. metoprolol",DxT15/DTRI-3 criteria,0.63
same,Events/pts (%),LVEF 0.30-0.39 (mean 0.337),(58%)
same,"Events/pts, time to any AF/AFL or ACM",LVEF 0.30-0.39 (mean 0.337),21/36
same,Hazard ratio (95% C.I.),LVEF 0.30-0.39,1.13
same,Events/pts (%),LVEF 0.40-0.49 (mean 0.447),(53%)
same,"Events/pts, time to any AF/AFL or ACM",LVEF 0.40-0.49 (mean 0.447),33/62
same,Hazard ratio (95% C.I.),LVEF 0.40-0.49,0.84
same,Events/pts (%),LVEF <0.30 (mean 0.228),(52%)
same,"Events/pts, time to any AF/AFL or ACM",LVEF <0.30 (mean 0.228),17/33
same,Hazard ratio (95% C.I.),LVEF <0.30,0.95
same,Events/pts (%),NYHA Class I,(38%)
same,"Events/pts, time to any AF/AFL or ACM",NYHA Class I,15/40
same,Hazard ratio (95% C.I.),NYHA Class I,0.72
same,Events/pts (%),NYHA Class II,(64%)
same,"Events/pts, time to any AF/AFL or ACM",NYHA Class II,51/80
same,Hazard ratio (95% C.I.),NYHA Class II,1.12
same,Events/pts (%),NYHA Class III,(50%)
same,"Events/pts, time to any AF/AFL or ACM",NYHA Class III,7/14
same,Hazard ratio (95% C.I.),NYHA Class III,0.83
same,"hazard ratio, Phase 2 (time to any AF/AFL or ACM)","Entire cohort (n = 267), covariate adjusted",1.01
same,"Time to AF/AFL/ACM, Non-stratified HR (95% CI)",Europe (N = 81),1.06
same,"Time to AF/AFL/ACM, Stratified HR (95% CI)",Europe (N = 81),1.01
same,"hazard ratio, Phase 2 (time to any AF/AFL or ACM)","Europe (n = 81), covariate adjusted",1.01
same,Failed ECV at day 0,Europe excluding Hungary,0%
same,"Hazard ratio, time to first AF/AFL/ACM, bucindolol vs. metoprolol",Europe excluding Hungary,0.50
same,"Hazard ratio, time to first AF/AFL/ACM, bucindolol vs. metoprolol","Europe, covariate adjusted",1.01
same,Failed ECV at day 0,Hungary,33%
same,"Hazard ratio, time to first AF/AFL/ACM, bucindolol vs. metoprolol","Hungary (FIG. 5C, covariate adjusted)",2.90
same,"Time to AF/AFL/ACM, Non-stratified HR (95% CI)",Hungary (N = 33),3.57
same,"Time to AF/AFL/ACM, Stratified HR (95% CI)",Hungary (N = 33),2.90
same,"Hazard ratio, primary endpoint, bucindolol vs. metoprolol",Hungary and Canada,> 1.5
same,"Hazard ratio, time to first AF/AFL/ACM, bucindolol vs. metoprolol","Hungary, unadjusted",3.57
same,event rate,[4],(55%)
same,"event rate, events/patients",[4],38/69
same,Hazard ratio (CIs),[4],1.02
same,event rate,[5],(69%)
same,"event rate, events/patients",[5],11/16
same,Hazard ratio (CIs),[5],0.83
same,event rate,[6],(43%)
same,"event rate, events/patients",[6],6/14
same,Hazard ratio (CIs),[6],0.51
same,event rate,[7],(53%)
same,"event rate, events/patients",[7],8/15
same,Hazard ratio (CIs),[7],1.70
same,event rate,[8],(54%)
same,"event rate, events/patients",[8],13/24
same,Hazard ratio (CIs),[8],0.92
same,event rate,[9],(49%)
same,"event rate, events/patients",[9],17/35
same,Hazard ratio (CIs),[9],0.80
same,event rate,[10],(83%)
same,"event rate, events/patients",[10],5/6
same,Hazard ratio (CIs),[10],1.18
same,event rate,[11],(33%)
same,"event rate, events/patients",[11],2/6
same,Hazard ratio (CIs),[11],0.43
same,event rate,[12],(43%)
same,"event rate, events/patients",[12],3/7
same,Hazard ratio (CIs),[12],1.62
same,event rate,[13],(44%)
same,"event rate, events/patients",[13],7/16
same,Hazard ratio (CIs),[13],0.57
same,event rate,[14],(54%)
same,"event rate, events/patients",[14],35/65
same,Hazard ratio (CIs),[14],0.89
same,event rate,[15],(58%)
same,"event rate, events/patients",[15],11/19
same,Hazard ratio (CIs),[15],1.52
same,event rate,[16],(56%)
same,"event rate, events/patients",[16],10/18
same,Hazard ratio (CIs),[16],0.63
same,event rate,[17],(58%)
same,"event rate, events/patients",[17],11/19
same,Hazard ratio (CIs),[17],0.83
same,event rate,[18],(33%)
same,"event rate, events/patients",[18],3/9
same,Hazard ratio (CIs),[18],0.48
same,event rate,[19],(64%)
same,"event rate, events/patients",[19],16/25
same,Hazard ratio (CIs),[19],0.57
same,event rate,[20],(80%)
same,"event rate, events/patients",[20],4/5
same,Hazard ratio (CIs),[20],1.04
same,event rate,[21],(63%)
same,"event rate, events/patients",[21],5/8
same,Hazard ratio (CIs),[21],0.54
same,event rate,[22],(67%)
same,"event rate, events/patients",[22],4/6
same,Hazard ratio (CIs),[22],0.70
same,event rate,[23],(50%)
same,"event rate, events/patients",[23],3/6
same,Hazard ratio (CIs),[23],0.35
same,Phase 2 primary endpoint hazard ratio (HzR),"DTRI lower bound ≤0, upper bound +9533 days",0.56
same,Ratio: 1-(Hazard ratio at ≤0/hazard ratio at interval) × 100,DTRI lower bound ≤−30,+3.7%
same,Phase 2 primary endpoint hazard ratio (HzR),"DTRI lower bound ≤−30, upper bound +9533 days",0.54
same,Ratio: 1-(Hazard ratio at ≤0/hazard ratio at interval) × 100,DTRI lower bound ≤−60,−3.4%
same,Phase 2 primary endpoint hazard ratio (HzR),"DTRI lower bound ≤−60, upper bound +9533 days",0.58
same,Ratio: 1-(Hazard ratio at ≤0/hazard ratio at interval) × 100,DTRI lower bound ≤−90,−13.8%
same,Phase 2 primary endpoint hazard ratio (HzR),"DTRI lower bound ≤−90, upper bound +9533 days",0.65
same,Ratio: 1-(Hazard ratio at ≤0/hazard ratio at interval) × 100,DTRI lower bound ≤−180,−18.8%
same,Phase 2 primary endpoint hazard ratio (HzR),"DTRI lower bound ≤−180, upper bound +9533 days",0.69
same,Ratio: 1-(Hazard ratio at ≤0/hazard ratio at interval) × 100,DTRI lower bound ≤−365,−8.2%
same,Phase 2 primary endpoint hazard ratio (HzR),"DTRI lower bound ≤−365, upper bound +9533 days",0.61
same,Ratio: 1-(Hazard ratio at ≤0/hazard ratio at interval) × 100,DTRI lower bound ≤−730,−23.4%
same,Phase 2 primary endpoint hazard ratio (HzR),"DTRI lower bound ≤−730, upper bound +9533 days",0.73
same,"Time to AF/AFL/ACM, Non-stratified HR (95% CI)",Non-U.S. (N = 140),1.22
same,"Time to AF/AFL/ACM, Stratified HR (95% CI)",Non-U.S. (N = 140),1.34
same,"Time to AF/AFL/ACM, Non-stratified HR (95% CI)",Poland (N = 23),0.28
same,"Time to AF/AFL/ACM, Stratified HR (95% CI)",Poland (N = 23),0.25
